# Results published in publication PMC4336329 (PLoS ONE, 2015).
# Among all 310,000 compounds or so, about 2,200 (0.71%) showed an effect of 50% or more. The effect is printed as a negative number. This is one part of the list.
# Target: human ether-à-go-go-related gene (hERG) potassium channel (human, UniProt Q12809)
# Assay: primary screen, population patch clamp on CHO cells stably expressing hERG
# human ether-à-go-go-related gene (hERG) potassium channel, sequence (Q12809 whole entry, looked up): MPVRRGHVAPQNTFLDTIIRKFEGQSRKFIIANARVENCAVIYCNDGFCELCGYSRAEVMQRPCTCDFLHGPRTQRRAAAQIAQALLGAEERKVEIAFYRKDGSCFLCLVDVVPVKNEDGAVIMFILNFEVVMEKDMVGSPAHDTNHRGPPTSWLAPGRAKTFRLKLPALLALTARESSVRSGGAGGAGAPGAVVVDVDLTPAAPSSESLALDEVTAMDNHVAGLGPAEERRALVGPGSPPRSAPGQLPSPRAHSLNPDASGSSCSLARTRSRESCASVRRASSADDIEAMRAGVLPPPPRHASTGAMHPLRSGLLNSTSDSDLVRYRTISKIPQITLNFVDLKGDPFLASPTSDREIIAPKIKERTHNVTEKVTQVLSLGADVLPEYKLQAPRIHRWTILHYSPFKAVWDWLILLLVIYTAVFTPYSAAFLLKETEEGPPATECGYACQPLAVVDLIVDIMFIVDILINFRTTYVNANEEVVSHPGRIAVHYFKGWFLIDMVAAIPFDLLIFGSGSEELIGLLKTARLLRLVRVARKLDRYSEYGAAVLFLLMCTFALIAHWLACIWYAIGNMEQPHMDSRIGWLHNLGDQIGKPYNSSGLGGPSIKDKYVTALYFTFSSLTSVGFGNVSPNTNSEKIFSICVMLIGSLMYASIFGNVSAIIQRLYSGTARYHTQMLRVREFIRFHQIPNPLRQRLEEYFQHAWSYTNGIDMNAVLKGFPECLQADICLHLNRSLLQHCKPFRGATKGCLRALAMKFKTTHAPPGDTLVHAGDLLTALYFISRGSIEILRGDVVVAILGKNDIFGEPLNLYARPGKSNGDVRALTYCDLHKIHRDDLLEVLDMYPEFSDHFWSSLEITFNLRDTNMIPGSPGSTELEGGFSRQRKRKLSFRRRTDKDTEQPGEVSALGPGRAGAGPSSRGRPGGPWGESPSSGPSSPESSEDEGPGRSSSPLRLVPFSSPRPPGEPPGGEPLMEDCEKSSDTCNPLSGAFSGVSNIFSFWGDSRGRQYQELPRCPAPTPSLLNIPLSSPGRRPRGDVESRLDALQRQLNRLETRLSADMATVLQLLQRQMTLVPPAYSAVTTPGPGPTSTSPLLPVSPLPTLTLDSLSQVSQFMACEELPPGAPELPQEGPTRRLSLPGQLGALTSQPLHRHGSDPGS
row,SMILES,"hERG current change (%, negative = inhibition) at 1uM [%]"
1,COc1ccc(C(=O)Nc2ccc(S(=O)(=O)Nc3nccnc3OC)cc2)cc1OC,7.09
2,S=C(NCc1ccncc1)Nc1cccc(Cl)c1,3.17
3,Cc1ccc(C)c(NC(=O)CSc2ccc(-c3ccco3)nn2)c1,37.8
4,CC(C)(C)c1ccc(OCC(=O)N2CCN(c3ccccn3)CC2)cc1,-2.43
5,COc1ccccc1-c1nc(SCC(=O)Nc2ccccc2F)n[nH]1,8.65
6,COc1cc(C2Nc3ccc4ccccc4c3C3=C2C(=O)CC(C)(C)C3)ccc1OCC(=O)O (stereo not shown),17.5
7,COc1cccc(NC(=O)C(=O)c2cn(CC(=O)N3CCOCC3)c3ccccc23)c1,2.94
8,Cc1cc(C)n(CCN(C)C(=O)C2CCC(=O)N(CCN3CCOCC3)C2)n1 (stereo not shown),16.1
9,CCOc1c(N2CCOCC2)c(=O)c1=O,12.8
10,Cc1ccnc(NC(=O)CCNC(=O)c2ccc(Cl)cc2)c1,19.4
11,CCC1(CC)Cc2ccccc2C(C2=C(O)CC(C)(C)CC2=O)=N1,15.6
12,CCOC(=O)NCc1ccc(CNC(=O)OCC)cc1,12.4
13,COc1cccc(Oc2c(C)oc3cc(OC(=O)N(C)C)ccc3c2=O)c1,-3.35
14,CN1C(=O)N(C)C2(c3ccccc3)N(C(C)(C)C)C(=O)NC12c1ccccc1 (stereo not shown),3.87
15,COC(=O)c1sc2ncccc2c1OCc1c(Cl)cccc1Cl,21.5
16,COc1ccc(N=Nc2ccc(CO)cc2)cc1,13.4
17,CC(C)(C)C(=O)Nc1nnc(SCC(=O)NC2CCCC2)s1,15
18,COc1cc(C(=S)N2CCOCC2)ccc1OS(=O)(=O)c1ccc(NC(C)=O)cc1,1.05
19,O=C(CN(Cc1ccco1)Cc1ccco1)Nc1cc(S(=O)(=O)N2CCCCC2)ccc1Cl,-15.4
20,O=C(NC1CC1)C1CCN(C2CCN(C(=O)/C=C/c3ccc(F)cc3)CC2)CC1,-19.9
21,Cc1ccc(N(Cc2cc(=O)[nH]c3ccccc23)C(=O)c2ccco2)cc1,-6.79
22,Cc1cc(OC(C)C(=O)NCC2CCC(C(=O)O)CC2)c2c(C)cc(=O)oc2c1 (stereo not shown),16.7

row,SMILES,"hERG current change (%, negative = inhibition) at 1uM [%]"
1,CC1(C)NC(=O)N(CCOCCOc2cccc(Oc3ccccc3)c2)C1=O,0.0586
2,O=[N+]([O-])c1ccc(S(=O)(=O)CC(CN2CCOCC2)N2CCOCC2)cc1 (stereo not shown),10.9
3,Cc1ccc(Sc2ccc(S(=O)(=O)Nc3ccc(CC(=O)O)cc3)cc2)cc1C,9.99
4,Cc1ccccc1NC(=O)c1ccc2nc(N3CCOCC3)sc2c1,-5.71
5,O=C(c1cccc(C(F)(F)F)c1)C1CCCN(C(=O)CCc2cnccn2)C1 (stereo not shown),-0.36
6,CN1CCN(C(=O)Cn2ncc3c([nH]c4ccccc43)c2=O)CC1,-10.2
7,FC(F)Oc1ccc(-n2cc(-c3ccccc3)[n+]3c2CCCCC3)cc1.[Br-],2.48
8,O=C(O)/C=C/c1cccc(NC(=O)Nc2ccc([N+](=O)[O-])cc2)c1,12.3
9,CCCn1c(-c2ccc(OC)cc2)nc2nc3ccccc3nc21,7.49
10,Cc1csc(SCC(=O)NCCc2ccc(Cl)cc2Cl)n1,-2.65
11,CCN(CC(=O)NCc1cccs1)C(=O)/C=C/c1cccc(Br)c1,-42.3
12,CN(C)CCCN(C(=O)COc1ccc(Cl)cc1)c1nc2cc3c(cc2s1)OCCO3.Cl,-4.94
13,COc1ccccc1/C=C(\NC(=O)c1ccccc1)C(=O)NCc1ccco1,17.1
14,COc1ccc2c(c1)C1(Nc3ccccc3C(=O)N1c1ccccc1)C(=O)N2 (stereo not shown),-0.876
15,Cc1cc(=O)nc2c3ccccc3n(CC(=O)NCCCN3CCCC3=O)n12,10.4
16,O=C(NCc1nc(-c2ccc(Cl)cc2)no1)c1ccc2c(c1)OCO2,9.62
17,Cc1ccc(Nc2nc(N)nc(CCl)n2)c(C)c1,16.4
18,Cn1c(=O)c2c(nc(NCCNC(=O)c3ccco3)n2Cc2ccc(Cl)cc2Cl)n(C)c1=O,16.3
19,Cc1cc(=O)oc2cc(OC(C(=O)O)c3ccccc3)ccc12 (stereo not shown),19.4
20,NC(=[NH2+])SCc1nc2ccccc2c(=O)n1-c1ccccc1.[Br-],6.23
21,COc1ccc(C2SCC(=O)N2CCc2ccc(OC)c(OC)c2)cc1 (stereo not shown),-1.68
22,O=C(CSc1nc(NS(=O)(=O)c2ccccc2)cc(=O)[nH]1)Nc1ccccc1C(F)(F)F,13.4

row,SMILES,"hERG current change (%, negative = inhibition) at 1uM [%]"
1,O=C(CCC(=O)N1CCN(S(=O)(=O)c2ccccc2)CC1)NC1CCCc2ccccc21 (stereo not shown),5.41
2,CCOC(=O)C1(CCc2ccccc2)CCN(C(=O)[C@@H]2C[C@@H](C)NC(=S)N2)CC1,6.48
3,O=C(CCNC(=O)c1ccco1)NC(Cc1c[nH]c2ccccc12)C(=O)O (stereo not shown),10.7
4,Cc1ccc(S(=O)(=O)NCCSc2ncccn2)cc1,26
5,COc1cc(C(=O)Oc2cccnc2)cc(OC)c1OC.Cl,14.7
6,O=C(O)C(O)c1ccccc1 (stereo not shown),4.82
7,Cc1cc(C(=O)COc2ccccc2C#N)c(C)n1C1CC1,15.1
8,COc1ccc(CCNC(=O)CSc2nc(O)cc(=O)[nH]2)cc1OC,12.6
9,CCN1C(=O)/C(=C\c2cn(CCC#N)nc2-c2ccc(F)cc2)SC1=S,3.28
10,Cn1nc(C(C)(C)C)cc1C(=O)NCc1ccc(N2CCCC2=O)cc1,-2.21
11,C=CCN=C1CCCc2c1[nH]c1ccc(C)cc21,13.2
12,CCOC(=O)C1CCN(C(=O)C(=O)N2CCC(C(=O)OCC)CC2)CC1,0.923
13,CCOc1cccc2cc(-c3nnc(NCc4ccco4)s3)c(=O)oc12,0.486
14,COC(=O)COc1ccc(C2NC(=O)NC(c3ccccc3)=C2C(C)=O)cc1Br (stereo not shown),17.3
15,O=C(CCCOc1ccc(Cl)cc1Cl)N1CCC2(CC1)OCCO2,-8.4
16,COc1ccc(CCCc2nnc(SCC(=O)Nc3nccs3)n2C)cc1C,14.5
17,CNc1[nH]ncc1[N+](=O)[O-],9.64
18,COc1ccc(/C=N/NC(=O)c2ccncc2)c(OC)c1,20.3
19,C/C=C/c1ccc(OCCCCn2cncn2)c(OC)c1,-3.99
20,COC(=O)c1cnc(NNS(=O)(=O)c2ccc(Cl)cc2)nc1C(F)(F)F,6.92
21,CSc1ccc(C(=O)NCC(c2ccco2)N(C)C)cc1[N+](=O)[O-] (stereo not shown),15.7
22,O=C(C1=C(O)C(=O)N(CC2CCCO2)C1c1cccc(O)c1)c1ccco1 (stereo not shown),10.3

row,SMILES,"hERG current change (%, negative = inhibition) at 1uM [%]"
1,CCc1ccc(NC(=O)c2cc(S(=O)(=O)N3CCc4ccccc43)cn2C)cc1,10.7
2,COC(=O)C1=C(c2cc3ccccc3s2)C[C@@H]2CC[C@H]1N2C(=O)NCc1ccc(C(F)(F)F)cc1,14
3,CN(CC(=O)Nc1c(Cl)cccc1Cl)C(=O)CNC(=O)C1CCCCC1,14.4
4,CCOc1cc(CO)cc(Br)c1OCC(=O)Nc1ccccc1C,6.36
5,O=C(Cn1c(=S)[nH]c2ccccc2c1=O)N1CCN(c2ccc(F)cc2)CC1,6.9
6,COc1ccc(CCNCc2ccncc2)cc1.O=C(O)C(=O)O,2.04
7,COc1ccc(O)c(-c2cc(-c3ccc(F)cc3)n[nH]2)c1,4.98
8,CCO.Cc1nn(-c2ccccn2)c2c1C(c1ccsc1)C1=C(CCCC1=O)N2 (stereo not shown),6.64
9,CCOC(=O)c1ccc(NC(=O)CCC2COc3ccccc3O2)cc1 (stereo not shown),13
10,CCn1cc(C(=O)Nc2cc(C)ccc2C)c(=O)c2ccc(C)nc21,12.7
11,Cc1ccc(S(=O)(=O)N(C)CC(=O)N2CCCc3ccccc32)cc1,1.35
12,COCCn1c(-c2ccccc2)nc2ccccc21,0.528
13,COc1cccc(C(=O)NCCNC(=O)c2cnccn2)c1,12.6
14,CCC(NC(=O)Nc1ncccc1C)(C(F)(F)F)C(F)(F)F,-5.65
15,CN(C)c1oc(-c2ccc(OCc3ccccc3)cc2)nc1C#N,10.2
16,CC(C)(C)NC(=O)CSc1nc(Cc2ccccc2)nc2ccccc12,1.92
17,O=c1[nH][nH]c(-c2ccccc2)c1C=Nc1ccc(OC(F)(F)F)cc1,8.84
18,COCCCn1c(C)nnc1SCC(=O)NCc1ccco1,13.7
19,NC(=O)CC[C@@H]1NC(=O)[C@H](CO)NC(=O)c2cc([N+](=O)[O-])cc(I)c2NCC[C@@H](C(N)=O)NC1=O,15.8
20,C=CCn1nnnc1SCC(=O)Nc1ccc(C(=O)OC)cc1,5.3
21,CCOc1cc(/C=N/Nc2nncc(-c3ccccc3)n2)ccc1O,5.12
22,Cc1ccc(N2C(N)=NC(N)=NC23CCCC3)c(C)c1.Cl,13.7
